Patent US6063815A, “Benzopenones useful in the treatment of insulin resistance and hyperglycemia” (American Home Products Corporation, priority 1999, dated 2000)
pIC50: −log10 of the molar value.

Target: T1, recombinant, human protein tyrosine phosphatase (PTP) 1B (hPTP1B) (Homo sapiens, UniProt P18031)
T1 sequence (P18031 1-435): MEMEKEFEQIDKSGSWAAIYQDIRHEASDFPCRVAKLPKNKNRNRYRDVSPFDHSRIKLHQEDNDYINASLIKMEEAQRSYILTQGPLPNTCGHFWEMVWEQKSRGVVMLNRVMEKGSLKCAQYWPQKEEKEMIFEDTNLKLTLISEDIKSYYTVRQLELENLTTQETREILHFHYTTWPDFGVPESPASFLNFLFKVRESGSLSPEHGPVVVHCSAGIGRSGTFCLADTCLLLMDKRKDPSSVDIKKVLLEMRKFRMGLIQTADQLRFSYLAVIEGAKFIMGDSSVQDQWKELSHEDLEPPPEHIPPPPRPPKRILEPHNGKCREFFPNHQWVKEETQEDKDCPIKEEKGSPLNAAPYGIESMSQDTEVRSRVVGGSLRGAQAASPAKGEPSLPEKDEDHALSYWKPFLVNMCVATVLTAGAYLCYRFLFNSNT

| SMILES | pIC50 | inhibition at 2.5 µM [%] | further results |
| --- | --- | --- | --- |
| O=C(c1ccccc1)c1cc(-c2ccccc2)c(OCc2ccc(C(=O)O)c(O)c2)c(-c2ccccc2)c1 [Example 2, 4-(5'-Benzoyl-[1,1';3',1"]terphenyl-2'-yloxymethyl)-2-hydroxy-benzoic acid] | 5.90 | – | – |
| COC(=O)c1cc(COc2c(I)cc(C(=O)c3ccccc3)cc2I)ccc1OC(C)=O [Example 3, 2-Acetoxy-5-(4-benzoyl-2,6-diiodo-phenoxymethyl)-benzoic acid methyl ester] | – | 34.9 | – |
| O=C(c1ccccc1)c1cc(-c2ccccc2)c(OS(=O)(=O)c2ccc(C(=O)O)c(O)c2)c(-c2ccccc2)c1 [Example 4, 4-(5'-Benzoyl-[1,1';3',1"]terphenyl-2'-yloxysulfonyl)-2-hydroxy-benzoic acid] | 6.45 | – | – |
| CCOC(=O)c1ccc(S(=O)(=O)Oc2c(-c3ccccc3)cc(C(=O)c3ccccc3)cc2-c2ccccc2)cc1O [Example 5, 4-(5'-Benzoyl-[1,1';3',1"]terphenyl-2'-yloxysulfonyl)-2-hydroxy-benzoic acid ethyl ester] | – | 65.5 | – |
| COc1ccc(C(=O)c2ccc(OS(=O)(=O)c3ccc(C(=O)O)c(O)c3)cc2)cc1 [Example 6, 2-Hydroxy-4-[4-(4-methoxy-benzoyl)-phenoxysulfonyl]-benzoic acid] | – | 26.9 | – |
| COc1ccc(C(=O)c2cc(I)c(OS(=O)(=O)c3ccc(C(=O)O)c(O)c3)c(I)c2)cc1 [Example 7, 4-[2,6-Diiodo-4-(4-methoxy-benzoyl)-phenoxysulfonyl]-2-hydroxy-benzoic acid] | 6.39 | – | – |
| COc1ccc(C(=O)c2cc(-c3ccccc3)c(OS(=O)(=O)c3ccc(C(=O)O)c(O)c3)c(-c3ccccc3)c2)cc1 [Example 8, 2-Hydroxy-4-[5'-(4-methoxy-benzoyl)-[1,1';3',1"]terphenyl-2'-yloxysulfonyl)-benzoic acid] | 5.95 | – | – |
| O=C(O)c1ccc(S(=O)(=O)Oc2ccc(C(=O)c3ccccc3Cl)cc2-c2ccccc2)cc1O [Example 11, 4-[5-(2-Chloro-benzoyl)-biphenyl-2-yloxysulfonyl]-2-hydroxy-benzoic acid] | – | – | inhibition at 1 µM: 42.8% |

Further lines, with some results ahead:

| pIC50 | inhibition at 2.5 µM [%] | SMILES | further results |
| --- | --- | --- | --- |
| 6.01 | – | O=C(c1ccccc1)c1cc(-c2ccsc2)c(OS(=O)(=O)c2ccc(C(=O)O)c(O)c2)c(-c2ccsc2)c1 [Example 9, 4-(4-Benzoyl-2,6-di-thiophen-3-yl-phenoxysulfonyl)-2-hydroxy-benzoic acid] | – |
| – | 34.4 | O=C(O)c1ccc(S(=O)(=O)Oc2c(-c3ccccc3)cc(C(=O)c3ccccc3)cc2-c2ccccc2)cc1 [Example 10, 4-(5'-Benzoyl-[1,1';3',1"]terphenyl-2'-yloxysulfonyl)-benzoic acid] | – |
| – | 64.2 | O=C(c1ccccc1)c1cc(I)c(OS(=O)(=O)c2ccc(C(=O)O)c(O)c2)c(I)c1 [Example 12, 4-(4-Benzoyl-2,6-diiodo-phenoxysulfonyl)-2-hydroxy-benzoic acid] | – |
